Measured values from article PMC12136788.
This is one part of the list.

T1: UNK ZnF1-3 (human, UniProt Q9C0B0 31-174)
T1 sequence: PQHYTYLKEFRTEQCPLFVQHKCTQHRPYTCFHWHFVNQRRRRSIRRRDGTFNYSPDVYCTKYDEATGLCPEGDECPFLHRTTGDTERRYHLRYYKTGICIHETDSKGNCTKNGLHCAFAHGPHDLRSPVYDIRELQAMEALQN

B1: 14486526_14487897_2526_CDS_ENSG00000129083_ENST00000439561|human|control|control (ssRNA)
RNA: GGGAGUUCUACAGUCCGACGAUCAUGAGGAGCAAGAGUCAAAGGAGACGGCUUUUCCACAAGUUUCAGAUCCCCUAGUGUAGCUAGUUCUAAUGUGCAAUUCUGCAAAGUAUCACUGGUUUGGUUCACAACAAGUACAUCCAGCAACAGAGGAUUGAGCAUCA
B2: chr4:65274301:65274302:+_ENSMUSG00000051675_ENSMUST00000050850|mus_mus|motif|central (ssRNA)
RNA: GGGAGUUCUACAGUCCGACGAUCGUGCAGCAGCUUGGGUCGCAGCUGCUCUUCAGUGAAGGACUCCAUGCAGAUGGGACAUUCGGGCACUUCCCGGAGGGCAUCCAGGUUCAGGUGAGAAGCUGCUGCAGCCGCAGCCAUUGCCAACAGAGGAUUGAGCAUCA
B3: chr3:105756983:105756984:-_ENSMUSG00000000563_ENSMUST00000118209|mus_mus|FALSE|FALSE (ssRNA)
RNA: GGGAGUUCUACAGUCCGACGAUCAAUAAAUUCUCCAAAAGAGGCGCCAUAUUUCUUAAUCACAUAGACUAUCAACCCUACUACUGAUAUGGUAGAGAAGGUCUCUGGGGUAAUCACAUAUAUUUCUUUGGAUAGAAAAUACAACAACAGAGGAUUGAGCAUCA
B4: chr19:29096225:29096226:-_ENSMUSG00000024782_ENSMUST00000025696|mus_mus|FALSE|FALSE (ssRNA)
RNA: GGGAGUUCUACAGUCCGACGAUCCUCAGGCUGGUUGGAUCCCACUGCUGUAAGUAGAAGAGGAGGCUGCUUAGAUGGUACCAGAAGAAUUGCUUCCCUUUAAAUUAGGGUGGGAAGUGGUAGCACACAGUGAUCCCAGCACUUCAACAGAGGAUUGAGCAUCA
B5: chr8:74858975:74858976:-_ENSG00000154582_ENST00000284811|hu_mus|hu_hu_hu_mus_True|8_8 (ssRNA)
RNA: GGGAGUUCUACAGUCCGACGAUCGACCUUGUAGGUAAAAUACAUGCACACUUUUGAUAGCACAUGUGAGGGGAUCUCUCUAAAAUUGACCUCGUUGGUUUCAUUCUCAGCAAACUGACCUGGACCACUCAACAUGGCCUUUAUCAACAGAGGAUUGAGCAUCA
B6: 93402855_93408775_669_CDS_ENSG00000166004_ENST00000325212|human|control|control (ssRNA)
RNA: GGGAGUUCUACAGUCCGACGAUCAUUGGUUUUGACUGCAGAAAUUCUUUUUACUUCGAUGUUCUCAAAAAGAGUUGGAGGAGGAGGUGGCAGACUUGUAAUUUUGGCUGAUCUCUCUUUUUCCACAAGCAGUGCUUCCUUUCGCAACAGAGGAUUGAGCAUCA
B7: chr6:133138135:133138136:+_ENSG00000112306_ENST00000230050|hu_hu|motif|central (ssRNA)
RNA: GGGAGUUCUACAGUCCGACGAUCAACCACUUUACGGGGUUUCCCCUCUCUGUCAAUUUUACAAAGGCCUACCCAUUCUCCGGGUUUCUUGUUGUCAUCAACCUUAAUUAGGUUGAUUUGGUGUUCAGCACAAAGGGCCUCCACCAACAGAGGAUUGAGCAUCA
B8: chr8:95500983:95500984:-_ENSG00000164944_ENST00000437199|hu_hu|hu_hu_hu_mus_True|48_108 (ssRNA)
RNA: GGGAGUUCUACAGUCCGACGAUCAGAAGGAUUUUUACGAGUAAAGGACCGUACAUGACGGCCUCUACCACUGCCUCCACUAACAAAACUUUCCUCUGAGCCUCCACUGCCGCUAUUUGUACUAGCCCAGGACGGUCCCAGGCCCAACAGAGGAUUGAGCAUCA
B9: chr11:18503389:18503390:-_ENSG00000074319_ENST00000251968|hu_hu|hu_hu_hu_mus_True|18_18 (ssRNA)
RNA: GGGAGUUCUACAGUCCGACGAUCAUUUUCCAUUUUCUCCAGAGCAGAACUUAGUUCUUCAUCCUUCUUUUUCAAAAGUUCUAUGUUUUUAUCAACUUCAGCUACUUCUUGAUCUAAACGGGUAACCAUCUCUUCCAGUUUCUGCAACAGAGGAUUGAGCAUCA
B10: chr6:41757443:41757444:+_ENSG00000214736_ENST00000398881|hu_mus|hu_hu_hu_mus_False|1_8 (ssRNA)
RNA: GGGAGUUCUACAGUCCGACGAUCGAACCGUGCAGAGGCAACAUCUCAGCCGACACUGGGGGAUGGGGGGGCAGUGGGGGGGGGUUCAGGCAAGGAGAGGGAGUCAACUUCAGCUGCCACUCAGGUAGCUGCCAUCAGGGCACACAACAGAGGAUUGAGCAUCA
B11: chr7:75932113:75932114:+_ENSG00000106211_ENST00000248553|hu_hu|hu_hu_hu_mus_False|38_58 (ssRNA)
RNA: GGGAGUUCUACAGUCCGACGAUCCUGCGACCACUCAUCGGGCAACCGGGGCACCCCGAAAGCUUGAUCGAAGAGGCGGCUAUGCGGAGGGUACCAGCGGAAGGGGUGUUCCCAGCUCGGGCUCCGCAGCAGCGAGAAGGGCACCAACAGAGGAUUGAGCAUCA
B12: chr11:43702452:43702453:+_ENSG00000149084_ENST00000278353|hu_hu|FALSE|FALSE (ssRNA)
RNA: GGGAGUUCUACAGUCCGACGAUCCCCCGCCUCAUUCCCCACUCCCCAGACCCGGAGGGCCGUGAAGAGCGAGUACGAAAUACGCAGGGCUAGGUAGGCCACGGUGCCCGCGCCGACCCAGUACAGGAAGCCGGCGGCGGGGAGCAACAGAGGAUUGAGCAUCA
B13: chr10:33214929:33214930:-_ENSG00000150093_ENST00000302278|hu_hu|hu_hu_hu_mus_True|28_98 (ssRNA)
RNA: GGGAGUUCUACAGUCCGACGAUCAACAAGUUCAUUGAAUACUUCUCCUCUGUCAGUAAGACUAAGCACAUUUUUGUAGCUAAAUGGGCUGGUGCAGUUUUGUUCACUUGUGCAAGGAUUUCUUAGCUUUGCUGGGGUUGUGCUCAACAGAGGAUUGAGCAUCA
B14: chr7:116084223:116084224:+_ENSMUSG00000031029_ENSMUST00000033342|mus_hu|motif|central (ssRNA)
RNA: GGGAGUUCUACAGUCCGACGAUCUGAUGCCCCUCCUACUUGCUGCAAGUCACUUGAGAGUCCAAUCACUCUGUUGGGGCGGAAGCAGGUCUUCAUGAUCAGGUCAACUCCGAUGCGUUCAGUGUCGUAGUACGCGUAUUUCACCAACAGAGGAUUGAGCAUCA
B15: chr3:10015032:10015033:+_ENSMUSG00000027533_ENSMUST00000029046|mus_mus|mus_mus_mus_hu_True|18_88 (ssRNA)
RNA: GGGAGUUCUACAGUCCGACGAUCGUUUUUACCAUCACAAGUGAUGAUACAGUCUGGCUUGGCCAUUGCGCCCAUUUUUCGCAAAGCUAUUCCCACUCCUAGCUCCUUCAUGUAUUCCUCAAAGCCGUUGCUGUCCACCAGGCGCAACAGAGGAUUGAGCAUCA
B16: chr5:128440902:128440903:+_ENSG00000066583_ENST00000173527|hu_mus|hu_hu_hu_mus_True|1_1 (ssRNA)
RNA: GGGAGUUCUACAGUCCGACGAUCUUGAACGGUGCUGCCAAGUCCUUUGGGGUAUUGUUCCGUUAUGAUAACUGGAAUCCCUAAGAUCCGAGCUCCUUGCAACAGUCUCUGUCCCACACUAAUGAUGUCCCCAAAGUACUUGAUCAACAGAGGAUUGAGCAUCA
B17: chr2:135883765:135883766:+_ENSG00000115839_ENST00000442034|hu_hu|motif|central (ssRNA)
RNA: GGGAGUUCUACAGUCCGACGAUCAGAAUAAACAUCAUUAUCCACAAUGAUCCCUUCGGUCAGAUGAGGCCAUGUAGUAGCGGAAUGGAGUUCACUAAUAGGAUCUUCGCAGGCACCAAAUGGUAACUUGCCAAACUCCAAGCCCAACAGAGGAUUGAGCAUCA
B18: chr7:149068622:149068623:-_ENSMUSG00000025139_ENSMUST00000001950|mus_hu|mus_mus_mus_hu_False|8_108 (ssRNA)
RNA: GGGAGUUCUACAGUCCGACGAUCGUGCAGGUACUGAGUGUGGCUUGUGGUCUGUCCUGGGUUAGAGUUGUUAAUAUCACGGAACAUACCAUCUAGAACGUUCCAGUCCCGCCUGACACCUUCAUUCGCAAGAGGGCAGAAAUCCAACAGAGGAUUGAGCAUCA
B19: chr2:37459336:37459337:+_ENSG00000003509_ENST00000002125|hu_hu|FALSE|FALSE (ssRNA)
RNA: GGGAGUUCUACAGUCCGACGAUCCAACACCUCCUUCAUGUACUCGGCCACAGUGAUGGGACCAGUAGACUUUAUUUUGUACAUAAGAUGCCGCAGCAUCGGCGUCACCGGGUUUUCUGCAGGCUCAUUCCCGGAGCUGAAGUACAACAGAGGAUUGAGCAUCA
B20: chrX:71549762:71549763:+_ENSMUSG00000019087_ENSMUST00000019231|mus_mus|mus_mus_mus_hu_False|38_58 (ssRNA)
RNA: GGGAGUUCUACAGUCCGACGAUCAAACCCGUGUACUUCUUAUUGUUAGCACAACAUCACCAGAAAACGAUAACGACAGCUAAGCUGGACAGACAGUCAAGUAGUCUUUCCACACUCCCAAACUCAGGGAGCCCUAUAACCUUACAACAGAGGAUUGAGCAUCA
B21: 166231856_166232689_1510_CDS_ENSG00000109466_ENST00000226725|human|control|control (ssRNA)
RNA: GGGAGUUCUACAGUCCGACGAUCCCUCCUUGUAUUCAUGGGAGCUACAUGAAACCACUCAUUAGACUUUAUGUUGUAUGCUUCCACAGAUGACAAACCUGUACUCCCAUCAAAGCCUCCCACAGCGUAUAAUAAUCCAUUUAACAACAGAGGAUUGAGCAUCA
B22: 117017677_117017797_2070_CDS_ENSMUSG00000020823_ENSMUST00000090433|mouse|control|control (ssRNA)
RNA: GGGAGUUCUACAGUCCGACGAUCGGAGACCUGCAGGGAGGCCAGCACGUCGUCCACUCGGGGUAGGUUGGUGGCAGCACAUGCUGGCAUGGUGUGGAAUUUCCACUGUAGGAUGUAGAAGCCUGGCCACCUGGUCACAUGGGACAACAGAGGAUUGAGCAUCA

The binders below were run against T1, UNK ZnF1-3 (assay: nsRBNS (natural sequence RNA bind-n-seq); RBNS binding buffer (assumed for nsRBNS): 25 mM Tris pH 7.5, 150 mM KCl, 3 mM MgCl2, 0.01% Triton X-100, 500 ug/ml BSA, 20 U/ml SUPERase-In, 4 C; UNK is unkempt and MSI1 is Musashi-1; names of the RNAs are library labels; protein concentration not given here; high values mean tight binding).
For B1, the binding signal was 1.44 enrichment R.
B2 showed a binding signal of 0.533 enrichment R.
B3 gave a binding signal of 0.954 enrichment R.
Binder B4 has a binding signal of 1.51 enrichment R.
Binder B5 has a binding signal of 0.619 enrichment R.
Work on B6 yielded a binding signal of 0.732 enrichment R.
Binder B7 has a binding signal of 0.505 enrichment R.
In the case of B8, the binding signal is reported as 0.989 enrichment R.
For B9, the binding signal was 0.506 enrichment R.
B10 gave a binding signal of 1.67 enrichment R.
In the case of B11, the binding signal is reported as 1.29 enrichment R.
B12 gave a binding signal of 0.579 enrichment R.
B13 showed a binding signal of 0.661 enrichment R.
Work on B14 yielded a binding signal of 0.706 enrichment R.
Work on B15 yielded a binding signal of 0.753 enrichment R.
B16 gave a binding signal of 0.566 enrichment R.
For B17, the binding signal was 1.08 enrichment R.
In the case of B18, the binding signal is reported as 0.932 enrichment R.
For B19, the binding signal was 0.777 enrichment R.
Work on B20 yielded a binding signal of 0.927 enrichment R.
With B21 the binding signal was 1.08 enrichment R.
With B22 the binding signal was 0.956 enrichment R.
